Measurements as given in the supplement of paper PMC3334620.
Over roughly 33,000 sequences, “E-score (-0.5 to 0.5)” has its median near -0.016; the highest 2% begin near 0.32. Some of the results follow.

What follows are sequences tested against T1, Stp1 (UniProt B3LFK1) (assay: PBM E-score (8-mer binding enrichment) (E-score (-0.5 to 0.5)); higher = stronger / more preferred TF binding; most listed sequences are background and not binding sites). Settings: protein concentration: 200 nM; construct: GST-full length.
T1 sequence: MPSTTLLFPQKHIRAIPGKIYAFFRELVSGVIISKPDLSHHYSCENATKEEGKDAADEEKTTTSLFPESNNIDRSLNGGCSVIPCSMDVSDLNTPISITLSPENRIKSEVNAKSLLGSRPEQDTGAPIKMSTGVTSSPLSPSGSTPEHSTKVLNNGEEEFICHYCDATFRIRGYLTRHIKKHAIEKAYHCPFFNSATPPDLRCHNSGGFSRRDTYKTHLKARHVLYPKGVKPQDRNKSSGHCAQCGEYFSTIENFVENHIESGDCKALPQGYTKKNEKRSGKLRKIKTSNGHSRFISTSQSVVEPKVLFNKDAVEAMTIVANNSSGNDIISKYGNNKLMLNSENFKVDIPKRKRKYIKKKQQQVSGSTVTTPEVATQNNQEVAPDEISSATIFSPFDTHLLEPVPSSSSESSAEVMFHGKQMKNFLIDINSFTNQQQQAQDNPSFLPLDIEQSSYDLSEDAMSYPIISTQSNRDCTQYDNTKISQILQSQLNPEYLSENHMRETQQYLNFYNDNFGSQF
Protocol: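 Universal 'all 10-mer' protein binding microarrays (Agilent AMADID 015681) probed with GST-tagged S. cerevisiae TFs (full-length or DBD) made by in vitro transcription/translation (PURExpress), about 100-200 nM. Bound TF was detected with fluorescent anti-GST. Each ungapped 8-mer (which stands for itself and its reverse complement) is scored by the PBM enrichment score (E-score), a modified Wilcoxon-Mann-Whitney statistic from -0.5 to +0.5, computed with the Universal PBM Analysis Suite. Scale: above 0.35 generally sequence-specific binding.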

Row | Sequence | PBM E-score
1 | ACCGACAT | 0.107
2 | GTCGCGAA | -0.00552
3 | GCGATGCA | -0.156
4 | GAAGATCA | 0.0771
5 | AACGTTAC | -0.0304
6 | AACTATAC | 0.0425
7 | GACCACCA | -0.14
8 | ATTGGATG | 0.0406
9 | GATCTTTA | 0.0673
10 | AGGTCTTC | -0.21
11 | ACCTAGCT | -0.284
12 | AATGGAGT | -0.202
13 | AAAATCAT | 0.0294
14 | ATGTCCTG | -0.2
15 | CAGATAAA | 0.0136
16 | GGGCGATA | -0.147
17 | TCAGACAA | 0.0572
18 | AAACCCGG | -0.0513
19 | GTGCCCCA | 0.149
20 | AATTTCTA | 0.0762
21 | AAGCAGCA | -0.206
22 | ATTAGTCA | 0.0485
23 | CGAGGAAC | 0.137
24 | ATTCTGGA | 0.0538
25 | AGAAATGC | 0.13

Row | Sequence | PBM E-score
26 | ACTATTAA | 0.175
27 | AATCGCAG | 0.0081
28 | GTTGCCAA | 0.0695
29 | AATATCGG | 0.0446
30 | CGGTCTGA | -0.0453
31 | CGTGTACC | -0.0873
32 | CACATACG | 0.116
33 | CAGTTGGC | -0.0796
34 | ACGCGATA | -0.0613
35 | GGCCATTA | 0.0667
36 | CAAAGGCA | 0.184
37 | TCGTCCAA | 0.107
38 | GCATGCCA | 0.025
39 | ATGGGAAT | -0.176
40 | GCCATTTA | 0.182
41 | CAGCATCA | 0.0143
42 | TATTTTGA | 0.0277
43 | AAACGACT | -0.089
44 | CTATCATA | 0.233
45 | CACGCTTC | -0.11
46 | CTGTTCAA | -0.00158
47 | GTGCGCTA | -0.151
48 | AAATAGCT | -0.0494
49 | CCCATTTC | -0.318
50 | CAAGTTAA | -0.0446

Row | Sequence | PBM E-score
51 | ACTATACT | -0.0201
52 | TTCCCCAA | -0.128
53 | AACAATGG | -0.101
54 | GCGAATAC | 0.00434
55 | AACTCAAT | -0.0793
56 | CCGCATGC | 0.279
57 | AACTGGCA | 0.0485
58 | CCCAGCAG | -0.0374
59 | CGGTACCC | -0.188
60 | CTGCATAC | 0.0385
61 | ATCTCTAG | -0.0509
62 | ATACTTTA | 0.113
63 | CCGTCCCC | -0.154
64 | AATGTTCG | -0.14
65 | CCAGGCCA | -0.246
66 | TAGACAAA | 0.045
67 | GGTTGATA | -0.0307
68 | GAGAGGCC | -0.102
69 | AATTGTGT | -0.0776
70 | ACTCATAT | -0.00183
71 | AAAGTGGA | -0.151
72 | AGGACGAG | -0.295
73 | CTAGTTTA | 0.0466
74 | CGCGCTTA | 0.147
75 | CATTTACA | 0.0742

Row | Sequence | PBM E-score
76 | GCATGTTA | 0.206
77 | GAAAGGTC | -0.263
78 | CGTGTTAG | 0.245
79 | ACCCTCTG | -0.245
80 | AAGGCCTA | -0.0711
81 | CTTTGCGA | 0.0799
82 | ACTTGACG | -0.0194
83 | CTAAAGCC | 0.0471
84 | ATAAGTTG | 0.0546
85 | ACGATGCC | 0.258
86 | ATCAACAA | 0.174
87 | CCGGTAAC | -0.197
88 | GCGCAACA | 0.0501
89 | ATACGGTG | 0.141
90 | AACTACCT | -0.0767
91 | ACGACGTA | -0.0203
92 | CCGACACC | -0.189
93 | GGCTGAAC | 0.12
94 | GCGTCTTA | 0.00904
95 | ATGAAATG | 0.00791
96 | GTACGTGA | 0.0167
97 | AGGAAGTG | -0.212
98 | AGATGGGG | -0.17
99 | AACTTAGA | 0.103
100 | AGCCATGC | 0.121

Row | Sequence | PBM E-score
101 | CGTCTGGA | -0.0198
102 | ACGAGCGT | -0.124
103 | ACTGCTAA | -0.0758
104 | ATAGTGCA | 0.0566
105 | AGCTCACA | -0.0162
106 | CACTAGAC | -0.0647
107 | AGCTTTAT | -0.0423
108 | ATTTCCAA | 0.153
109 | AAATAGCA | -0.116
110 | GACATTGA | -0.0419
111 | CCATCCAG | -0.217
112 | CTCGCGGA | -0.0275
113 | GGATCCTA | -0.101
114 | CTAACGAG | -0.057
115 | CCTGAACG | 0.0107
116 | GATGCAGA | -0.0503
117 | AGGCCCCA | -0.18
118 | CCAACCGA | -0.146
119 | ACAAAGGT | -0.00097
120 | ACAAACGT | -0.0516
121 | ACCCCTAA | -0.132
122 | CGAGCGCC | 0.219
123 | CGAGGACC | -0.137
124 | AGCTGAGG | -0.195
125 | CCGGTTCG | -0.324

Row | Sequence | PBM E-score
126 | ACACACAA | 0.182
127 | CGCCCGGA | -0.107
128 | GGTTCCAC | -0.197
129 | CACTGCAA | 0.174
130 | ACGTCGCT | -0.207
131 | CCATAAGG | -0.0531
132 | TAAGGTCA | -0.15
133 | AATCGGCG | 0.28
134 | GTTCAACA | 0.0457
135 | AAACACCA | -0.0168
136 | TGAATCAA | 0.183
137 | ATCATCTC | -0.0585
138 | ACGTAGAA | 0.165
139 | CTAGGTCA | -0.368
140 | ATCGCTGG | -0.172
141 | ACGGCCCA | 0.333
142 | ATTGGGCA | -0.0403
143 | AGTTTCCG | 0.1
144 | CAGTCTAG | -0.269
145 | CCCATCAA | 0.00916
146 | TGCTGCCA | -0.0707
147 | CACCTTCC | -0.0396
148 | ACTGACGC | 0.0121
149 | GAGAACAA | 0.145
150 | ATTCCACA | 0.203

Row | Sequence | PBM E-score
151 | AAAGTCTA | -0.18
152 | GCGAAGGA | 0.0735
153 | AGGACTTG | -0.245
154 | GCCCCAGC | -0.0464
155 | AAGTTCCC | -0.163
156 | GTATAGGA | -0.108
157 | CAGTGCTA | -0.321
158 | CTTCCTGC | -0.191
159 | CCATGCGG | 0.242
160 | CTATAACC | -0.236
161 | AGTTATTA | 0.136
162 | AAATTAAG | -0.00684
163 | ATCTCTAC | -0.0286
164 | CACTGCCG | 0.336
165 | GACTTTAA | -0.142
166 | AGCCTGTG | -0.189
167 | ACATCGGA | -0.0218
168 | GTCATGCA | 0.0946
169 | CCCCCACG | -0.183
170 | CAGTCACC | -0.248
171 | GAAGGGCA | 0.231
172 | AAAATACA | 0.0755
173 | CGAATAGC | -0.0392
174 | GTCCGTTA | -0.165
175 | ACCTTGTG | 0.0315

Row | Sequence | PBM E-score
176 | ATAACAAA | 0.259
177 | AGACAGGG | -0.0469
178 | ACAACTTA | -0.0708
179 | ATGGAACC | -0.134
180 | ACTGCGCC | 0.265
181 | AAGTAGCA | 0.0981
182 | CCTGTCAG | -0.142
183 | ACGGGTCT | -0.0113
184 | AGGATTTC | -0.0126
185 | GCGTGCAC | 0.0305
186 | CATTTCCC | 0.159
187 | ATAATGCC | 0.325
188 | TACTCTGA | 0.105
189 | CGTCCTAA | 0.0169
190 | CATAACGG | -0.0232
191 | CGCGTTAC | 0.132
192 | GACCTAGA | -0.148
193 | GTTAAAAC | -0.0479
194 | TTCTAAAA | 0.12
195 | CCTACTCG | 0.0409
196 | CATAAACC | 0.00914
197 | AGGTATGG | -0.077
198 | CTCCAAAG | -0.0697
199 | AAGATGCC | 0.277
200 | ACTTTAGC | -0.157

Row | Sequence | PBM E-score
201 | AGGGGAAC | -0.331
202 | GCTTTCCA | 0.207
203 | GGTTTTCA | 0.208
204 | GATACATC | 0.032
205 | ATGTCTAC | -0.0869
206 | AAAAAACT | 0.00808
207 | ATGTTGGA | 0.153
208 | CAGATCGA | -0.22
209 | ATGTCGGG | -0.0272
210 | TGGCTGAA | 0.03
211 | AGGCCGAG | -0.00317
212 | GGAATCAC | -0.0225
213 | CCATCTAA | 0.0176
214 | AGAGCACG | -0.0369
215 | GCACGAAC | 0.101
216 | AATCACGT | 0.147
217 | CGCTAGCA | -0.247
218 | AACACTAA | 0.0707
219 | GGAAATGA | 0.0633
